Laboratory results as given in PubChem BioAssay (NCI).
Where “and” joins values, the source holds several entries; their conditions need not be identical. Equal entries are not always repeated.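 Grown in 96-well plates, cells were treated for 48 hours with each compound at five concentrations. Insufficient inhibition: endpoint recorded as highest concentration tested. GI50 = concentration required for 50% inhibition of growth. TGI marks complete inhibition of growth.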

The molecules below were run on NCI-H322M lung (assay: NCI anticancer screen, dose series, 48 h).

Structure (SMILES) | GI50 | TGI
COc1cc2c(F)nccc2cc1C(=O)N[C@@H](c1ccc(F)c(Cl)c1)[C@@H]1C[C@@H](O)CN1 | 12.1 µM | 35.7 µM
C1=Nc2ccc(cc2)N=Cc2ccccc2OCc2cccc(n2)COc2ccccc21 | – | > 100 µM
CC(=O)OCC1OC(n2c(C#N)cc(=O)[nH]c2=O)CC1OC(C)=O (stereo unspecified) | – | > 100 µM
Cc1nn2c(=O)c([N+](=O)[O-])c(/C=C/c3ccco3)nc2s1 | – | > 100 µM
CN1C(=O)CN2C(Cl)(Cl)C2(c2ccccc2F)c2cc([N+](=O)[O-])ccc21 (stereo unspecified) | – | > 100 µM
CCCc1cc(=O)oc2c(C=O)c(O)cc(O)c12 | – | 74.7 µM
CCOC(CCCNCCCn1c2c(c3cc(OC)c(OC)cc3c1=O)C(=O)c1cc3c(cc1-2)OCO3)OCC | 6.8 µM | 13.2 µM
CC1(C)O[C@H]([C@H](O)c2nnc3ccc(Cl)nn23)[C@@H]([C@H]2COC(C)(C)O2)O1 | – | > 100 µM
NC(=O)NC(=O)CCC(NS(=O)(=O)c1ccccc1)C(=O)NC(N)=O (stereo unspecified) | – | > 100 µM
COc1cccc(NC(=O)C(C)(C)C)c1C=O | – | > 100 µM
O=C1Nc2cc(Cl)ccc2N=CC1NC(=O)C(c1ccccc1)c1ccccc1Cl (stereo unspecified) | – | > 100 µM
CC(C)C1C(=O)NC(CO)Cc2c[nH]c3c(C(c4c[nH]c5ccccc45)C(O)CO)ccc(c23)N1C (stereo unspecified) | – | > 100 µM
NC(=O)C1c2ccccc2C=Cc2ccccc21 | > 100 µM | > 100 µM
CCNCCC1(CC)C(=O)NC(=O)NC1=O | – | > 100 µM
CCOC(=O)C(Cc1c[nH]c2ccc([N+](=O)[O-])cc12)(NC(C)=O)C(=O)OCC | > 1000 µM | > 1000 µM
COc1ccc(/C=N/n2c(=O)[nH]c3ccccc3c2=O)cc1 | – | > 100 µM
C=C(C)[C@@H]1CC[C@]2(C(N)=O)CC[C@]3(C)[C@H](CC[C@@H]4[C@@]5(C)CC[C@H](O)C(C)(C)[C@@H]5CC[C@]43C)[C@@H]12 | 2.59 µM | 13 µM
CCC(=O)C1(c2ccccc2)CCN(C)CC1 | – | > 100 µM
COCc1c(CO)cnc(C)c1OC1OC(CO)C(O)C(O)C1O (stereo unspecified) | – | > 100 µM
Cc1c(C#N)c(N)[nH]c(=S)c1C#N | – | > 100 µM
O=C(O)C1=C(C(=O)Nc2ccccc2)C2C=CC1C2 (stereo unspecified) | – | > 100 µM
CCCOc1ccc(-c2nc(-c3ccc(N=Cc4ccc(N(CCOS(C)(=O)=O)CCOS(C)(=O)=O)cc4C)cc3)cs2)cc1 | – | 38 µM
O=c1cc(-c2ccccc2)oc2cc(OCC(O)COc3ccc4c(=O)cc(-c5ccccc5)oc4c3)ccc12 | – | > 100 µM
CCOC(=O)/C(C=Nc1c(C)n(C)n(-c2ccccc2)c1=O)=C(/O)c1ccccc1 | – | > 100 µM

Structure (SMILES) | GI50 | TGI
COC(=O)[C@@]1(Cc2ccccc2)[C@H]2c3cc(C(=O)N4CCCC4)n(Cc4ccc(OC)c(OC)c4)c3C[C@H]2CN1C(=O)c1ccccc1 | 14.6 µM | > 50 µM
O=C(NCCc1ccccc1)[C@H]1CCCC[C@@H]1CCO | – | > 100 µM
Cc1ccc(/C=N/Nc2nc3ccccc3s2)s1 | – | > 100 µM
Nc1nc(Cl)cc(NCCCNc2cc(Cl)nc(N)n2)n1 | – | > 100 µM
COc1ccc(-c2nsc3c2NC(=O)CC3c2ccc(F)cc2)cc1 (stereo unspecified) | 6.46 µM | > 100 µM
Cc1ccc(S(=O)(=O)Oc2ccc([N+](=O)[O-])cc2[N+](=O)[O-])cc1 | 14.1 µM | 29 µM
C[C@H]1CC[C@H]([C@@H](C)[C@H]2[C@@H](O)C[C@H]3[C@@H]4CC[C@H]5C[C@@H](O)CC[C@]5(C)[C@H]4CC[C@]23C)NC1 | – | 37.4 µM
CNC1C(O)C(NC)C2OC3(O)C(=O)CC(C)OC3OC2C1O (stereo unspecified) | – | > 100 µM
Oc1cccc(-c2ccc3c4c2O[C@H]2c5[nH]c6ccccc6c5C[C@@]5(O)[C@@H](C3)N(CC3CC3)CC[C@]425)c1 | – | 9.85 µM
CCCCCN1CCN(c2ncccn2)CC1 | – | > 100 µM
Cc1cccc(-c2nn3c(c2-c2ccnc4ccc(C(N)=O)cc24)CCC3)n1 | > 100 µM | > 100 µM
COc1ccc(CC2c3cc(OC)c(OC)c(OC)c3CC[N+]2(C)C)cc1Oc1ccc(CC2c3cc4c(c(OC)c3CC[N+]2(C)C)OCO4)cc1 (stereo unspecified) | – | > 100 µM
COc1ccc(/C=N/N=C(\N)NO)c(Cl)c1O | – | > 100 µM
C=CC(CBr)CCC(Br)C(C)(C)Br (stereo unspecified) | – | > 10 µM
COC(=O)[C@H]1C(=O)[C@@]2(C)[C@H]([C@H](OC(=O)c3ccccc3)[C@]3(O)C[C@H](OC(=O)[C@H](O)[C@@H](NC(=O)c4ccc(F)cc4)c4ccccc4)C(C)=C1C3(C)C)[C@]1(OC(C)=O)CO[C@@H]1C[C@@H]2O | 0.0172 µM | 24.4 µM
CN[C@@H](C)C(=O)N[C@H]1CN(C(=O)CC(C)C)CC[C@H]2CC[C@@H](C(=O)NC(c3ccccc3)c3ccccc3)N2C1=O | > 100 µM | > 100 µM
CC(C)(C)N1C(=O)c2ccccc2C1(O)C(F)(F)F (stereo unspecified) | – | > 100 µM
CC(/C=C/C(=O)c1sc(-n2nc(-c3ccccc3)cc2-c2ccccc2)nc1C)=C\c1ccccc1 | – | > 100 µM
Cc1cc(C(=O)Nc2nc3cccc(Cl)c3n2[C@@H]2CCCCN(C(=O)/C=C/CN(C)C)C2)ccn1 | 0.265 µM | 19.4 µM
O=c1oc2ccccc2n1P(=O)(n1c(=O)oc2ccccc21)n1c(=O)oc2ccccc21 | – | > 100 µM
C/C1=C/C(=O)O[C@@H]2C[C@@H](CC[C@H](C)/C=C\C=C\CC1)O[C@@](O)([C@@H]1CSC(=O)N1CO)C2 | 1.21 µM | > 100 µM
CC1=C(C(=O)Nc2ccccc2)C(c2ccc([N+](=O)[O-])cc2)C(C(=O)Nc2ccccc2)=C(C)N1 | – | > 100 µM
Cc1cccc(O)c1-c1nnc(CCCCCCCCc2nnc(-c3c(C)cccc3O)n2N)n1N | – | > 100 µM
CCc1c2c(nc3cc4c(c(N)c13)OCO4)-c1cc3c(c(=O)n1C2)COC(=O)[C@]3(O)CC | 0.0153 µM and 0.0444 µM | > 100 µM

Structure (SMILES) | GI50 | TGI
Cc1c(-c2ccccc2)[nH]c2ccc(Cl)cc2c1=O | – | > 100 µM
CCN(CC)c1ccc(C2CC(c3cc(OC)c(OC)c(OC)c3)=NN2)cc1 (stereo unspecified) | > 100 µM | > 100 µM
O=C(CCCCCCCn1cc(-c2cccnc2)nn1)Nc1ccccc1-c1ccccc1 | 8.38 µM | 97.4 µM
CSc1nc(NC2OCC(OC(C)=O)C(OC(C)=O)C2OC(C)=O)c(N=C(C)C(C)=O)c(=O)n1C (stereo unspecified) | – | > 100 µM
COc1cccc(Cn2c(-c3nonc3N)nc3ccccc32)c1 | 0.893 µM | > 100 µM
CNC(=O)c1c(NC(=O)c2ccc(C(F)(F)F)cc2)sc2c1CCC(=O)C2 | 3.48 µM | > 82.4 µM
COc1cc2c(c(OC)c1O)-c1ccc(OC)c(=O)cc1[C@@H](NC(=O)C(F)(F)F)CC2 | – | > 100 µM
CCOC(=O)C[C@@H](C)[C@]1(C(=O)OC)CCCC1=O | – | > 100 µM
CC1(C)C(C#N)=[N+]([O-])C(C)(C)N1O | – | > 100 µM
Cc1ccc2nc(N/N=C/c3ccc(C)s3)cc(C)c2c1 | – | 17.2 µM
CCOC(=O)[C@@H]1OC(c2ccccc2)O[C@H]1C(=O)OCC | – | > 100 µM
COc1c2ccoc2cc2oc(=O)ccc12 | – | > 100 µM
O=C1CCCC2=C1CC1=C(CCCC1=O)N2c1ccccc1C(=O)O | – | > 100 µM
Nc1ccccc1SC(CC(=O)c1ccccc1)c1ccc([N+](=O)[O-])cc1 (stereo unspecified) | 15.6 µM | 29.9 µM
O=c1c(-c2c(-c3ccccc3)oc3ccc(Cl)cc3c2=O)c(-c2ccccc2)oc2ccc(Cl)cc12 | – | > 100 µM
COc1ccc(/C=C/C(=O)C(C)(C)CN2CCCCC2)cc1 | – | 57.3 µM
Cc1cc(S(=O)(=O)NC(=C(C#N)C#N)[n+]2ccc(N(C)C)cc2)c([S-])cc1Cl | – | > 100 µM
CCc1n[nH]c(=O)n1N1C(=O)CCC1=O | – | > 100 µM
COc1ccc2oc(=Nc3ccccc3)c(C(N)=O)cc2c1 | – | > 100 µM
Cc1cc2nc3c(C#N)c(-c4ccccc4)/c(=C\Nc4ccc(Cl)cc4)c(=O)n3c2cc1C | – | > 100 µM
CO/[N+]([O-])=C\C(=O)N/C=C/C(=O)O | – | > 100 µM
CCC(=O)C1(N2CCOCC2)CCN(CCCC(=O)c2ccc(F)cc2)CC1 | – | > 100 µM
Cc1ccc(-c2cc(-c3ccc(Cl)cc3)nc(/N=C3\C(=O)N(CN4CCOCC4)c4ccccc43)n2)cc1 | – | > 100 µM
CC(=O)NC(CCCCN(Cc1ccccc1)C(=O)NCCCl)C(=O)NCc1ccccc1 (stereo unspecified) | – | > 100 µM

Structure (SMILES) | GI50 | TGI
CC(=O)OCc1ccc2oc(=O)c(C(=O)Oc3cccc(Cl)c3)cc2c1 | – | 51.5 µM
Fc1ccc(-c2nn3c(CNc4ccccc4)nnc3s2)cc1 | 6.22 µM | 93.2 µM
C#CCSc1n[nH]c(-c2ccco2)n1 | – | > 100 µM
COC(=O)[C@H]1[C@@H](O)[C@@]2(O)c3c(OC)cc(O[C@@H]4O[C@@H]([C@H](O)CO)CO[C@H]4OC)cc3O[C@@]2(c2ccc(OC)cc2)[C@@H]1c1ccccc1 | 0.00306 µM | 0.0211 µM
N=c1oc2c(Br)cc(Br)cc2cc1C(=O)Nc1ccccn1 | – | > 100 µM
O=C1c2sc(-c3ccc(F)cc3)cc2-n2cccc21 | – | > 100 µM
c1ccc(N=C(N2CCOCC2)N(CCN2CCOCC2)c2ccccc2)cc1 | – | > 100 µM
CC1(C)C=Cc2c(cc3oc4ccc5c(c4c(=O)c3c2O)C=CC(C)(C)O5)O1 | – | > 100 µM
COc1ccc(CCN2CCCN3C2=Nc2ccccc2S3(=O)=O)cc1 | 0.736 µM | > 100 µM
CCN1CCN(c2nc3ccccc3nc2C(=O)c2ccc(OC)cc2)CC1 | – | > 100 µM
CCOC(=O)C(NC(=O)C(CCCCNP(=O)(OCC)OCC)NC(=O)C(C)NC(C)=O)C(C)C (stereo unspecified) | – | > 100 µM
CC(=O)[O-].CC(=O)[O-].O=C(N/N=C/c1cc(Cl)cc(Cl)c1O)c1ccncc1.[Ni+2] | – | > 100 µM
C=CCCOC(=O)CO[N+](=O)[O-] | – | > 100 µM
CCOC(=O)C1(C#N)C(c2ccccc2)CC(O)(c2ccc([N+](=O)[O-])cc2)C(C(=O)c2ccc([N+](=O)[O-])cc2)C1c1ccccc1 (stereo unspecified) | – | > 100 µM
Cc1ccccc1N=CN(C)C | – | > 100 µM
COc1cc2c3c(c4ccc(OC)c(OC)c4c2cc1OC)CN1CCC[C@@H]1C3 | – | > 33.9 µM
Cc1ncc(C(=O)Nc2ccc(CN3CCN(C)CC3)c(C(F)(F)F)c2)cc1C#Cc1cnc(N)c2cnccc12 | 0.0611 µM | 12.2 µM
CC(C)OC(=O)Nc1cccc(Cl)c1 | – | > 100 µM
CN(C)C(=S)N1C(=S)N(c2ccccc2)C(=Nc2ccccc2)C1=Nc1ccccc1 | – | > 100 µM
N=C(N)/N=C(\N)c1c(-c2cc(O)ccc2O)nc2sccn12 | 22.9 µM | 60.4 µM
Cn1c2c(c3ccccc31)CCN1OCC=C[C@@H](C(=O)O)[C@@H]21 | – | > 100 µM
COc1c2c3ccccc3nc-2n(C)c2ccccc12 | 7.06 µM | 34.2 µM
CCOC(=O)Cc1nc2ccccc2s1 | – | 50.4 µM
C=C1C(=O)OC2/C=C(\C)C3OC3/C=C(/C(=O)OC)C(O)C(OC(=O)C3(C)OC3C)C12 (stereo unspecified) | – | 23.8 µM
